Measurements published in PubChem BioAssay AID504832 (National Center for Advancing Translational Sciences (NCATS), 2011).
About 18,000 (5.8%) of roughly 310,000 compounds were called active. The inconclusive results got no clear call from the source; some entries with a clear call stand among them for comparison. Calls come from the whole dose curve; as a rule, active = well fitted inhibition curve with a large enough effect; inconclusive = small, poorly fitted or top-dose-only effect, or another doubt; inactive = no such curve, though single readings can be large or run the other way. No potency is given beside an inconclusive call; the fits are too rough.

Test: Primary qHTS for delayed death inhibitors of the malarial parasite plastid, 48 hour incubation
Settings: P. falciparum luciferase growth in erythrocytes; series mostly up to 28.7 µM
How it was run: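 A one-generation exposure of luciferase-tagged malaria parasites in RPMI 1640/Albumax erythrocyte culture, 37 C and 5% CO2. Inhibition is inferred from decreased luminescence after adding detection reagent.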
Potency is the fitted concentration of half-maximal effect; tags give direction and shape of the fitted curve.

Compound | Potency
Cc1ccc(NCC(=O)Nc2cccc(F)c2)cc1S(=O)(=O)N1CCCCCC1 | active: 0.262 µM
Cn1cccc1Cc1nnc(SCC(=O)Nc2ccccc2F)n1-c1ccc(F)cc1 | active: 13.1 µM
COc1ccc(-n2nc3c(c2NC(=O)C2CCCC2)CS(=O)(=O)C3)cc1 | inconclusive [inhibitor, single point]
O=C1NC(=Nc2ccc(F)cc2)SC1Cc1ccc(F)cc1 (stereo unspecified) | active: 9.28 µM
Cc1cccc(N2CCN(C(=O)c3cccc(N4C(=O)C5C6C=CC(C6)C5C4=O)c3)CC2)c1C (stereo unspecified) | inconclusive [inhibitor, partial curve]
Cc1ccc(OCC(=O)Nc2cccc(S(=O)(=O)N3CCCCCC3)c2)c([N+](=O)[O-])n1 | inconclusive [inhibitor, partial curve, poor fit]
O=C(c1ccc(Br)cc1)N1CCN(S(=O)(=O)c2ccccc2)CC1 | inactive
Cc1nc2c(c(=O)n1CCC1=CCCCC1)c1nc3ccccc3nc1n2/N=C/c1ccco1 | active: 10.4 µM
CCCCCCCCCn1ccc(=N)cc1 | active: 0.165 µM
COc1ccccc1OCCn1cc(C#N)c2ccccc21 | inconclusive [inhibitor, single point]
Brc1ccc(-c2cnc(-c3cccs3)o2)cc1 | inactive
O=C(NC(=S)N(CCO)Cc1ccccc1)c1cc(Br)ccc1Cl | inconclusive [inhibitor, single point]
COC(=O)COc1ccc(/C=N/NC(=O)c2ccc(N(Cc3ccccc3)S(C)(=O)=O)cc2)cc1 | inconclusive [inhibitor, partial curve]
CSc1ncc(/C=C2/C(=O)NC(=O)N(c3ccc(C(C)C)cc3)C2=O)cn1 | inactive
COc1ccc(CCN2C(=O)CC(NNc3ccc([N+](=O)[O-])cc3)C2=O)cc1OC (stereo unspecified) | inconclusive [inhibitor, single point]
Cn1nc(C(=O)NNC(=O)CCOc2ccc(C(C)(C)C)cc2)c2ccccc2c1=O | inconclusive [inhibitor, single point]
Cc1ccc(N(C)S(=O)(=O)c2cccc(C(=O)Nc3nnc(C4CC4)s3)c2)cc1 | inactive
Cc1ccc(NC(=O)Nc2cnc3ccccc3c2)cc1 | inconclusive [inhibitor, single point]
CCN(CC)C(=O)Cn1cc(SCC(=O)NCc2ccco2)c2ccccc21 | inconclusive [inhibitor, partial curve, poor fit]
CCN(CC)S(=O)(=O)c1ccc2c(c1)c(=O)c(C(=O)NCCCN(C)c1ccccc1)cn2C | inconclusive [inhibitor, single point]
Cc1ccc(-c2csc3nnc(SCC(=O)N4CCN(Cc5ccccc5)CC4)n23)cc1 | inconclusive [inhibitor, single point]
Cc1cc(NC(=O)CCC(=O)N(CC(=O)NCC2CCCO2)c2cccc(F)c2)no1 (stereo unspecified) | inactive

Compound | Potency
COc1ccc(/C=N/Nc2ncc(-c3ccccc3)cn2)c(OC)c1 | inactive
CN1CCN(c2nc3c(c(=O)[nH]c(=O)n3C)n2Cc2cccc3ccccc23)CC1 | inconclusive [inhibitor, partial curve]
CC(C)[C@H](NC(=O)c1cccc(S(=O)(=O)N2CCOCC2)c1)C(=O)Nc1nc2ccccc2s1 | active: 14.7 µM
COc1ccc(S(=O)(=O)N2CCCCCC2)cc1C(=O)N1CCN(c2ccccc2O)CC1 | active: 2.33 µM
COc1ccc(OC)c(NC(=O)CCS(=O)(=O)c2cc3c(cc2C)NC(=O)CO3)c1 | inactive
COC(=O)C1=CN(C2CC2)C=C(C(=O)OC)C1c1ccc(C(=O)OC)cc1 | inconclusive [inhibitor, partial curve]
COc1cccc(N2CCN(C(=O)c3ccc(CS(=O)c4ccc(Cl)cc4)o3)CC2)c1 (stereo unspecified) | inconclusive [inhibitor, partial curve, poor fit]
COc1cccc(-c2sc3ccc(OC)cc3c2-c2ccc(C(N)=O)cc2)c1 | inconclusive [inhibitor, single point]
Cc1c(Cc2ccccc2)c(=O)n2c([nH]c3ccccc32)c1C#N | inconclusive [inhibitor, single point]
O=C1C2N=NN(CC(=O)N3N=C(c4ccccc4)CC3c3ccc([N+](=O)[O-])cc3)C2C(=O)N1c1ccccc1 (stereo unspecified) | inconclusive [inhibitor, single point]
COc1ccc(NC(=O)CN2CCN(S(=O)(=O)c3ccc(Cl)cc3)CC2)cc1Cl | inconclusive [inhibitor, partial curve]
COc1ccccc1NC(=O)Nc1nc(CC(=O)Nc2ccccc2F)cs1 | inconclusive [inhibitor, single point]
CCn1c(SCC(N)=O)nc2sc3c(c2c1=O)CCN(C)C3 | active: 1.31 µM
COc1ccc(CCNC(=O)COc2ccc(N(C)S(=O)(=O)c3ccc(C)cc3)cc2)cc1 | inconclusive [inhibitor, partial curve]
COc1cc(/C=N\NC(=O)CNC(=O)c2cccc([N+](=O)[O-])c2)ccc1O | inactive
COc1ccccc1C(=O)NC(=O)COC(=O)CNC(=O)c1ccccc1 | inconclusive [inhibitor, single point]
O=C(/C=C/c1cccs1)Nc1nncs1 | inactive
O=C(c1ccccc1F)N(Cc1ccc2c(c1)OCO2)Cc1cc2cc3c(cc2n2nnnc12)OCO3 | inconclusive [inhibitor, partial curve, poor fit]
CCC1(C(=O)c2ccccc2)C(c2cccc([N+](=O)[O-])c2)C1(C(=O)OC)C(=O)OC (stereo unspecified) | inconclusive [inhibitor, single point]
CCN(CC)C(=O)CCn1nc(-c2ccc(C)cc2)c2ccccc2c1=O | active: 7.38 µM
O=C(NCC(=O)N1CCCC1C(=O)O)OC1CCCCC1 (stereo unspecified) | inconclusive [inhibitor, single point]
CCO[C@H]1OC(C(=O)N2CCN(Cc3ccccc3)CC2)=C[C@@H](c2ccc(C(F)(F)F)cc2)[C@@H]1CCCO | inconclusive [inhibitor, partial curve, poor fit]

Compound | Potency
O=C(Nc1ccc(CN2CCOCC2)cc1)c1cccc(-c2cc3ccccc3oc2=O)c1 | inconclusive [inhibitor, single point]
O=c1cc(CSc2nnc(COc3cccc4ccccc34)o2)c2ccccc2[nH]1 | inactive
O=C(CN1CCN(CCN2C(=O)c3cccc4cccc(c34)C2=O)CC1)c1ccc(Cl)cc1 | inconclusive [inhibitor, single point]
CCc1ccc(NC(=O)NNC(=O)c2cc3ccccc3cc2O)cc1 | inactive
CCOC(=O)Cn1nc(C)c(NC(=O)c2cccc([N+](=O)[O-])c2)c1C | inconclusive [inhibitor, single point]
O=C(Cn1cnc2c(nnn2Cc2ccccc2F)c1=O)NCc1ccco1 | inconclusive [inhibitor, full curve]
COc1ccc(N2C(=O)C3CCCN3C2c2ccc(C)o2)cc1 (stereo unspecified) | inactive
COCCCNC(=O)CSC1=Nc2ccccc2C2=NC(CC(=O)NCc3ccccc3)C(=O)N12 (stereo unspecified) | inconclusive [inhibitor, partial curve, poor fit]
COc1ccc(CNCCC2(C(C)C)CCOC(C)(C)C2)cc1 (stereo unspecified) | inconclusive [inhibitor, single point]
CCc1c(C)nc2cc(-c3ccc(OC)c(OC)c3)nn2c1N1CCC(C)CC1 | active: 7.38 µM
COCCC(=O)N1CCC(Oc2ccc(C(=O)N3CCCCCC3)cc2)CC1 | inconclusive [inhibitor, full curve, poor fit]
CC(C)NS(=O)(=O)c1ccc(OCC(=O)Nc2ccc(F)cc2)cc1 | inactive
CCOC(=O)C1CCN(C(=O)C2CCC(=O)N(CC3CCCCC3)C2)CC1 (stereo unspecified) | inactive
CCOC(=O)c1c(NC(=O)Cn2cnc3scc(-c4ccc(C)cc4)c3c2=O)sc(C)c1C | inconclusive [inhibitor, single point]
N/C(=N\OC(=O)/C=C/c1ccccc1)c1cccnc1 | inconclusive [inhibitor, single point]
CCCN1C(=O)c2ccccc2NC1c1ccc(C)cc1 (stereo unspecified) | inconclusive [inhibitor, single point]
COCCNc1nc(-c2cc3ccccc3o2)cs1 | inactive
CCc1c(C)sc(NC(=O)Cn2nc(C)c([N+](=O)[O-])c2C)c1C(N)=O | inactive
CC(=O)NCc1ccc(-c2csc(NC(=O)CCCc3nc4ccccc4c(=O)[nH]3)n2)cc1 | active: 9.28 µM
Cc1cc(C)cc(NC(=O)c2cccc3c2C(=O)N(C2CCCCC2)C3)c1 | inconclusive [inhibitor, partial curve, poor fit]
CC(=O)O[C@H]1C(=O)[C@@]2(C)[C@H]([C@H](OC(=O)c3ccccc3)[C@]3(O)C[C@H](OC(=O)[C@H](O)C(NC(=O)c4ccccc4)c4ccccc4)C(C)=C1C3(C)C)[C@]1(OC(C)=O)CO[C@@H]1C[C@@H]2O (stereo partly specified) | active: 0.104 µM
CC(C(=O)N(C)C1CCS(=O)(=O)C1)N1C(=O)/C(=C/c2cccs2)SC1=S (stereo unspecified) | inconclusive [inhibitor, partial curve, poor fit]
